Data published in PMC6919601, “Identification of Plasmodium dipeptidyl aminopeptidase allosteric inhibitors by high throughput screening” (PLoS ONE, 2019).
The campaign covered roughly 110,000 compounds. About 230 (0.21%) showed an effect of 50% or more. Some of the results follow.

The compounds below were run against DPAP1 (Plasmodium falciparum, UniProt Q8IIJ9) (assay: primary screen, percent inhibition; read by cleavage of a fluorogenic dipeptide substrate; higher = more effect of the substance).
DPAP1, sequence (Q8IIJ9 whole entry, looked up): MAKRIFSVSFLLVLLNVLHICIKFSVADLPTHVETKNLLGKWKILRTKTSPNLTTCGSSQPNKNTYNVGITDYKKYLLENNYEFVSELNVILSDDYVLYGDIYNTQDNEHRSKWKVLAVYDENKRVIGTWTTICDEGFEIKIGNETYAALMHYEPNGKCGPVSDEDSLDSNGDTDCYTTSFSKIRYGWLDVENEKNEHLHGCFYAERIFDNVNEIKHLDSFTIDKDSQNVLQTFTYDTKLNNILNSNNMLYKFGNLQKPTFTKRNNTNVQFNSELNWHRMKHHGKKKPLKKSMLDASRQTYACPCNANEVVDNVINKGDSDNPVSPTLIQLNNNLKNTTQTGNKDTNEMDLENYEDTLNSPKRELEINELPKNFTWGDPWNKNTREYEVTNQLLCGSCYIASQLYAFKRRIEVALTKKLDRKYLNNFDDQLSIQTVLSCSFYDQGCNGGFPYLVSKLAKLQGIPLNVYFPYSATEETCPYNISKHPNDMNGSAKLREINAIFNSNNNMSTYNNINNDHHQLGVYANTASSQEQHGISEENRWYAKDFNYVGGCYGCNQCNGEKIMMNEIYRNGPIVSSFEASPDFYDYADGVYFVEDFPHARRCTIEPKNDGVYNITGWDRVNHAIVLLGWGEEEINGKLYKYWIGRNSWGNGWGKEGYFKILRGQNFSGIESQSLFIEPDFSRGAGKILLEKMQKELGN
Set-up: species or system P. falciparum D10 trophozoite lysates; single well
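Further: 30 min substrate incubation versus DMSO and 10 µM JCP410 controls.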

Compound | % Inhibition @ 10 uM [%]
CC(NC(=O)CCC(=O)NC(C)c1ccccc1)c1ccccc1 (stereo not drawn) | -14.3
CSc1ccc(CCNCc2c(C(=O)O)c(C)n(Cc3c(F)cccc3Cl)c2C)cc1 | -5.49
CC(C)Oc1ccc(/C=C2/NC(=O)NC2=O)cc1 | -4.93
COc1ccc(S(=O)(=O)CC(=O)c2cc3cccc(C)c3oc2=O)cc1 | -1.47
CC1CC(Nc2ccccc2)c2ccccc2N1C(=O)c1ccc(Br)cc1 (stereo not drawn) | 1.35
CC(=O)Nc1nc2ccccc2n1Cc1ccccc1 | 6.04
Cc1sc2nc(SCc3ccccc3)n(C)c(=O)c2c1C | 3.92
Fc1ccccc1N1CCN(Cc2cccc(C(F)(F)F)c2)CC1 | -0.127
COc1ccc(C2CC(C(F)(F)F)n3ncc(C(=O)N(C)Cc4ccccc4)c3N2)cc1OC (stereo not drawn) | 3.25
O=C(Cn1nc(C(F)(F)F)cc1C1CC1)Nc1ccc(F)c(Cl)c1 | 2.4
Cc1ccc2c(c1)c1nc3ccccc3nc1n2CC(=O)O | -2.98
CS/C(=N\C(CC1CCCCC1)C(=O)NCC#N)NS(C)(=O)=O (stereo not drawn) | -4.82
COc1ccc(NC(=O)CSc2nnnn2-c2ccccc2)cc1 | 5.2
CCC(=O)N1C(C(=O)NCCc2ccc(Cl)cc2)CSC12CCN(C)CC2 (stereo not drawn) | 1.11
COc1ccc(CCNC(=O)C(C(C)C)N2C(=O)c3ccccc3C2=O)cc1 (stereo not drawn) | -4.16
COc1cccc(-c2cc(C(=O)Nc3ccc(S(N)(=O)=O)cc3)c3ccccc3n2)c1 | 5.44
CCOC(=O)c1ncn(-c2ccccc2)n1 | -2.78
COc1cc(CO)ccc1OCc1ccc(Cl)cc1 | -1.38
COc1ccc(Sc2ccccc2CC#N)cc1 | 0.0974
Cc1nnc2c3ccccc3nc(N(C)C3CCCCC3)n12 | -7.08
CCn1ncc(/C=c2/sc3n(c2=O)C(c2ccc(C)o2)C(C(=O)Nc2ccccc2)=C(C)N=3)c1C (stereo not drawn) | 0.727
CCC(=O)N1N=C2c3cc(OC)ccc3CCC2C1c1ccccc1 (stereo not drawn) | 0.812
N#Cc1sc2nc3c(cc2c1N)CCC3 | -2.81
CC1=C(C(=O)N2CCCCCC2)C2(CCCCC2)OC1=O | 1.55
COc1ccccc1C(=O)N/C(=C\c1ccc2c(c1)OCO2)C(=O)O | 7.1
CCc1nc(SCC(=O)Nc2ccc(OC)cc2)c(C#N)cc1C | -9.55

Compound | % Inhibition @ 10 uM [%]
Cc1ccc(N(CC(=O)NCc2ccco2)S(=O)(=O)c2ccccc2)cc1C | 2.37
NS(=O)(=O)c1ccc(CCNC(=O)CSc2ncccc2C(=O)O)cc1 | -5.92
CCOC(=O)c1c(NC(=O)CSc2nnc3c(n2)[nH]c2ccccc23)sc2c1CCN(C)C2 | 26.4
O=C1C2C3CCC(C3)C2C(=O)N1c1ccc(O)cc1 (stereo not drawn) | -4.72
Cc1ccc(CNC(=O)CCCCCNc2nc(S)nc3ccccc23)cc1 | 7.04
COc1ccc(Br)cc1CN1CCC2(C=Cc3ccccc32)CC1 | 0.0792
O=C(CCCOc1ccc(Cl)cc1Cl)N1CCCC1 | 4.66
S=C1N(CN2CCOCC2)CCN1CN1CCOCC1 | -4.35
c1ccc2c(c1)-c1ccccc1C2n1ccnc1 | 3.05
CC1(C)CC(NC(=O)C(C)(C)Oc2ccc(Cl)cc2)CC(C)(C)N1 | -7.31
COc1ccc2c(=O)cc(-c3ccccc3)n(C)c2c1 | -3.23
CCCSC1=C(C#N)C(c2ccccc2Cl)CC(=O)N1 (stereo not drawn) | -4.08
Oc1nc(-c2ccccc2)nc(O)c1-c1ccccc1 | 5.84
O=C(CSCc1cnn(-c2ccccc2)c1-n1cccc1)NCc1ccc2c(c1)OCO2 | -1.08
O=C(COc1ccc(Cl)cc1)Nc1ccc(S(=O)(=O)Nc2ccc(F)cc2)cc1 | -2.03
CCCN1CCC(N2CCC(C(=O)OCC)CC2)CC1 | -3.6
Cc1ccc(S(=O)(=O)c2nnn3c2nc(N(C)Cc2ccccc2)c2sccc23)cc1 | 2.75
COc1ccc(/C=C2/SC(=O)N(Cc3cccc(C(=O)O)c3)C2=O)cc1 | 1.21
O=C(NCc1nnc(SCC(=O)N2CCOCC2)o1)c1ccccc1F | -3.39
CC(C)Cn1c(=O)c2ccccc2n2c(CCC(=O)O)nnc12 | -9.31
Cc1cc(C)c2nc(N3CCCC(C(=O)NC(C)c4ccccc4)C3)sc2c1 (stereo not drawn) | 4.95
CCOc1ccccc1C1C2=C(O)CC(c3ccccc3)CC2=NC(C)=C1C(=O)OC (stereo not drawn) | 2.45
CCNC(=O)/C(=C\c1ccc(OC)cc1)NC(=O)c1ccc(Br)cc1 | 2.36
N#Cc1cccc(NC(=O)c2cccnc2)c1 | -3.39
O=C(CSc1nc2ccccc2s1)NC1CCCCC1 | 0.526
COc1ccccc1NCN1C(=O)S/C(=C/c2ccc(F)cc2)C1=O | -1.32

Compound | % Inhibition @ 10 uM [%]
Cc1cc2ccccc2n1CCNC(=O)C(=O)c1cn(CC(=O)N2CCOCC2)c2ccccc12 | 4.59
O=C(NCCO)c1nnc(Cc2c(F)cccc2Cl)o1 | -3.9
CCN(CC)CCNC(=O)CCc1nnc2n(Cc3ccccc3)c(=O)c3ccccc3n12 | -6.07
NC(=O)CSc1nnc(-c2cccs2)n1-c1cccc(C(F)(F)F)c1 | -6.91
O=C(CN1C(=O)c2cccc3cccc(c23)C1=O)N1CCc2ccccc2C1 | 8.36
CCn1c(/C=C/c2c(C)n(C)c3ccccc23)nc2ccccc2c1=O | -1.2
CC1(NC(=O)NC2CCS(=O)(=O)C2)CCS(=O)(=O)C1 (stereo not drawn) | -1.11
c1ccc(Oc2cccc(CN3CCN(Cc4ccncc4)CC3)c2)cc1 | -5.26
CCc1c(-c2ccccc2)n(CCCO)c2nc3c(c(=O)n(C)c(=O)n3C)n12 | 0.121
CCC(=O)N1N=C(C(F)(F)F)CC1(O)c1ccc(F)cc1 (stereo not drawn) | 4.01
Cc1nn(C)c(C)c1CNC(=O)c1cc2n(n1)C(C(F)(F)F)CC(c1ccc3c(c1)OCO3)N2 (stereo not drawn) | -0.62
Cc1cc(C)c(S(=O)(=O)N2CCN(S(=O)(=O)c3c(C)cc(C)cc3C)CC2)c(C)c1 | -4.43
CCn1cc(C(=O)NCCN(C)C)c2cc(OC)c(OC)cc2c1=O | -4.06
O=C(Nc1ccccc1C(=O)Nc1ccc(Cl)cc1)c1ccccc1 | 1.15
CC1CCN(C(=O)/C=C\c2ccccc2)CC1 | 0.736
CCN1CCN(c2ncnc3c2cnn3-c2ccccc2)CC1 | 5.38
CN(C)CCN1C(=O)C(O)=C(C(=O)c2ccc(Cl)cc2)C1c1ccc(Br)cc1 (stereo not drawn) | 1.4
Cc1ccccc1CN1CCC(N2CCN(CCO)CC2)CC1 | -9.16
CC(C)C[C@H](NS(=O)(=O)c1cccc2ccccc12)C(=O)N[C@@H](CCc1ccccc1)CS(=O)(=O)c1ccc2ccccc2c1 | -5.64
COc1ccccc1Cn1c(NCCCO)nc2c1c(=O)n(C)c(=O)n2C | 0.279
CCc1ccccc1NC(=S)NC(=O)c1ccc(Cl)cc1 | 1.35
c1ccc(CNC2CCc3ccccc3C2)nc1 (stereo not drawn) | -3.6
Cc1cc(C)cc(N2C(=O)CC(N3CCCCC3)C2=O)c1 (stereo not drawn) | 2.75
O=C(/C=C/c1ccc(F)cc1)NC1CC1 | 2.16
O=C(NCCNC(=O)C1CCCNC1=O)c1ccc(Cl)cc1 (stereo not drawn) | -9.34
CN1CCN(CCc2nnc(S)n2-c2ccccc2)CC1 | 2.6

Compound | % Inhibition @ 10 uM [%]
CC1=CC2=NC(=O)/C(=C\c3ccc(OCCOc4ccccc4)cc3)C(=N)N2O1 | 0.317
COCCOC(=O)C1=C(N)OC2=C(C(=O)CC(C)(C)C2)C1c1cccnc1 (stereo not drawn) | 4.86
COc1ccc(OC(C)C(=O)NCc2nc(-c3ccc(C)cc3)no2)cc1 (stereo not drawn) | 3.74
O=C(CC1Sc2ccc(C(F)(F)F)cc2NC1=O)Nc1ccccc1Cl (stereo not drawn) | 0.992
COC(=O)c1cc2cccc3c2n1CCS3 | -5.37
CCSc1nc(-c2ccc(OC)cc2)cc(C(F)(F)F)c1C#N | -1.4
CC1(C)CC(=O)C2=C(C1)OC(c1cccs1)C(C#N)=C2N (stereo not drawn) | -9.24
CCCCNC(=O)CS(=O)Cc1nc(-c2cccc(Cl)c2)oc1C (stereo not drawn) | -4.71
CC1C(O)C(C)C(c2ccccc2)N(C)C1c1ccccc1 (stereo not drawn) | 2
COc1cccc(-c2nc3ccccc3[nH]2)c1 | -0.546
CCOc1ccc(-n2c(CSc3nc(C)cc(C)n3)nnc2SCC(N)=O)cc1 | -0.942
O=[N+]([O-])c1ccc2c(c1)C1C=CCC1C(c1ccccc1Cl)N2 (stereo not drawn) | 2.22
O=C(NCCCCCCNC(=O)N1CCCCC1)N1CCCCC1 | 4.33
CCc1c(C)sc(NC(=O)Nc2ccc(C)cc2)c1C(N)=O | 2.05
CC(C)c1ccc(-c2c(C#N)c(N)nc3c2CCC3)cc1 | -6.22
Cc1ccc(S(=O)(=O)c2cc3ccc(C)n3cn2)cc1 | -1.24
COc1cc(OC)cc(-c2nc3nc(C)c(CCC(=O)NC(C)c4ccccc4)c(C)n3n2)c1 (stereo not drawn) | 1.26
COc1ccc(C(=O)N/C(=C\c2cccc3ccccc23)C(=O)Nc2cccc(C(C)=O)c2)cc1 | -4.03
N#Cc1cc([N+](=O)[O-])cnc1NCCO | 5
Cc1ccc(CN(C)CCc2ccccn2)cc1 | 3.47
COc1ccc(Cl)cc1NC(=O)CSc1nc(C)cc(O)n1 | -0.511
CCN(CC)CCN(CC)Cc1c(Cl)cccc1Cl | 0.0792
Cc1nc2ccc(Br)cc2c(-c2ccccc2)c1C(=O)O | -4.32
CC1CCCC(NC(=O)CN2CCCN(Cc3ccc(F)cc3Cl)C2=O)C1C (stereo not drawn) | 2.35
